Assay results reported in PubChem BioAssay (NCATS).
The shares of active, inactive and inconclusive entries below differ from those in the screen. Where the call is inconclusive, the potency comes from a doubtful curve fit. Active and inactive are the calls of the source. Calls come from the whole dose curve; as a rule, active = well fitted inhibition curve with a large enough effect; inconclusive = small, poorly fitted or top-dose-only effect; inactive = no such curve, though single readings can be large or run the other way.

Assay: qHTS assay to identify inhibitors of the type 1 interferon - major histocompatibility complex class I in skeletal muscle: Counter screen cell viability and HiBit confirmation (AID 1347412); note: nearly all actives have a fitted effect of over 60% in size
Conditions: iHSKM muscle cells + IFN-b, HiBiT or CellTiter-Glo, 24 h; HiBiT
Summary of the method: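 Luminescence read-out: Nano-Glo HiBiT lytic signal from C-terminally HiBiT-tagged HLA-B in CRISPR-edited human myoblasts, plus CellTiter Glo ATP as viability counter screen. IFN-beta 4.0 ng/ml; 24 hrs treatment at 37 C, 5% CO2.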
% is set by controls: 0 for no effect and ±100 for the full control effect; potency is the fitted concentration of half-maximal effect; tags give direction and shape of the fitted curve.

Row | SMILES | Potency
1 | COC(=O)Nc1ccc(-c2nc(N3CCOCC3)c3cnn(C4CCN(C(=O)OC)CC4)c3n2)cc1 | inconclusive: 4.43 µM [inhibitor, partial curve]
2 | O=[N+]([O-])c1ccc2c(c1)S(=O)(=O)C=C2 | active: 1.76 µM
3 | COc1cc2nc(N3CCCN(C)CC3)nc(NC3CCN(Cc4ccccc4)CC3)c2cc1OC | inconclusive: 7.01 µM [inhibitor, full curve, poor fit]
4 | O=Nc1c(-c2c(O)[nH]c3cc(Br)ccc23)[nH]c2ccccc12 | active: 22.2 µM
5 | Oc1ccc(C2CCN(c3ccnc4ccccc34)CC2)cc1O | inconclusive: 15.7 µM [inhibitor, partial curve, poor fit]
6 | CC(=O)OCC(=O)[C@@]1(O)CC[C@H]2[C@@H]3CCC4=CC(=O)C=C[C@]4(C)[C@H]3[C@@H](O)C[C@@]21C | inconclusive: 0.0313 µM [inhibitor, full curve, poor fit]
7 | CN(c1ncccc1CNc1nc(Nc2ccc3c(c2)CC(=O)N3)ncc1C(F)(F)F)S(C)(=O)=O | active: 4.97 µM
8 | CO[C@H]1C(=O)[C@]2(C)[C@@H](OC)C[C@H]3OC[C@@]3(OC(C)=O)[C@H]2[C@H](OC(=O)c2ccccc2)[C@]2(O)C[C@H](OC(=O)[C@H](O)[C@@H](NC(=O)OC(C)(C)C)c3ccccc3)C(C)=C1C2(C)C | inconclusive: 0.0035 µM [inhibitor, full curve, poor fit]
9 | O=C(Nc1ccccc1-c1cn2c(CN3CCNCC3)csc2n1)c1cnc2ccccc2n1 | active: 11.1 µM
10 | C=CC(=O)Nc1cc2c(Nc3ccc(F)c(Cl)c3)ncnc2cc1C#CC(C)(C)N1CCN(C)CC1 | inconclusive: 5.57 µM [inhibitor, full curve, poor fit]
11 | CCc1ccc(OCc2ccccc2C(=O)Nc2ccc3nc(C)cc(N)c3c2)cc1 | inconclusive: 14 µM [inhibitor, partial curve, poor fit]
12 | Nc1nccc(Oc2ccc(NC(=O)c3c[nH]cc(-c4ccc(F)cc4)c3=O)cc2F)c1Cl | inconclusive: 24.9 µM [inhibitor, partial curve]

Same assay, conditions: iHSKM muscle cells + IFN-b, HiBiT or CellTiter-Glo, 24 h; HiBiT; at 45.9 µM (top of the series)

Row | SMILES | activity change, negative = inhibition
13 | C[C@H]1C[C@H]2[C@@H]3CCC4=CC(=O)C=C[C@]4(C)[C@@]3(Cl)[C@@H](O)C[C@]2(C)[C@@]1(O)C(=O)CO | inactive: -24%
14 | C[C@H](NC(=O)C(=O)Nc1ccccc1C(C)(C)C)C(=O)N[C@@H](CC(=O)O)C(=O)COc1c(F)c(F)cc(F)c1F | inactive: -0.932%
15 | Clc1ccc(C(Cn2ccnc2)OCc2ccc(Sc3ccccc3)cc2)c(Cl)c1 (stereo not drawn) | inactive: -10.3%
16 | Cc1ccc(C(=O)Nc2cccc(C(F)(F)F)c2)cc1Nc1nc(-c2cccnc2)nc2c1cnn2C | inactive: -9.48%

Same assay, conditions: iHSKM muscle cells + IFN-b, HiBiT or CellTiter-Glo, 24 h; Viability

Row | SMILES | Potency
17 | CC1(C)CCC2=C(O1)c1ccccc1C(=O)C2=O | active: 24.9 µM
18 | Cc1ccc(S(=O)(=O)/C=C/C#N)cc1 | active: 17.6 µM
19 | CC(C)(C)c1ccc(S(=O)(=O)/C=C/C#N)cc1 | active: 11.1 µM
20 | COC(=O)Nc1ccc(-c2nc(N3CCOCC3)c3cnn(C4CCN(C(=O)OC)CC4)c3n2)cc1 | inconclusive: 3.52 µM [cytotoxic, full curve]
21 | O=[N+]([O-])c1ccc2c(c1)S(=O)(=O)C=C2 | inconclusive: 11.1 µM [cytotoxic, partial curve, poor fit]
22 | O=C1C(Cl)=C(NCCN2CCOCC2)C(=O)c2ncccc21 | active: 5.57 µM
23 | COc1cc2nc(N3CCCN(C)CC3)nc(NC3CCN(Cc4ccccc4)CC3)c2cc1OC | active: 22.2 µM
24 | Cc1ccc2nc(NCCN)c3ncc(C)n3c2c1 | inconclusive: 12.5 µM [cytotoxic, partial curve, poor fit]
25 | O=Nc1c(-c2c(O)[nH]c3cc(Br)ccc23)[nH]c2ccccc12 | inconclusive: 31.3 µM [cytotoxic, partial curve, poor fit]
26 | O=Nc1c(-c2c(O)[nH]c3ccccc23)[nH]c2ccccc12 | inconclusive: 17.6 µM [cytotoxic, partial curve, poor fit]
27 | O=C1C(SCCO)=C(SCCO)C(=O)c2ccccc21 | active: 4.97 µM
28 | NS(=O)(=O)c1cccc2c1C(=O)c1cccc(O)c1C2=O | active: 0.496 µM
29 | O=C(Nc1ccccc1-c1cn2c(CN3CCNCC3)csc2n1)c1cnc2ccccc2n1 | active: 15.7 µM
30 | C=CC(=O)Nc1cc2c(Nc3ccc(F)c(Cl)c3)ncnc2cc1C#CC(C)(C)N1CCN(C)CC1 | active: 22.2 µM
31 | O=C1c2ccccc2-[n+]2ccc3c([nH]c4ccccc43)c21 | active: 2.22 µM
32 | CCc1ccc(OCc2ccccc2C(=O)Nc2ccc3nc(C)cc(N)c3c2)cc1 | inconclusive: 44.3 µM [cytotoxic, single point]
33 | COCCn1c2c([n+](Cc3cnccn3)c1C)C(=O)c1ccccc1C2=O | active: 2.49 µM
